This list was built around the results that the source calls inconclusive (neither active nor inactive); the mix of calls is not that of the screen. For part of these data: Where the call is inconclusive, the potency comes from a doubtful curve fit. Active and inactive are the calls of the source. Calls follow the shape of the dose curve; as a rule, active = well fitted curve in the direction sought with a large enough effect in the repeat runs; inconclusive = weak or mixed curves; inactive = no such curve, though single readings can be large; an effect the other way counts as inactive or inconclusive.
Experiments:
[1] = Human pregnane X receptor (PXR) small molecule agonists, qHTS cell viability counter screen (AID 1346977); also: nearly all actives have a fitted effect of over 50% in size
Outline: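 Readout is CellTiter-Fluor fluorescence from PXR-Luc HepG2 cells. Plated cells rested 5hr, then were treated with compounds for 24hr at 37C and 5% CO2, with reagent present during the last hour.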

[2] = molecular target: Nuclear receptor subfamily 1 group I member 2 (Homo sapiens) (UniProt O75469); test: Human pregnane X receptor (PXR) small molecule agonists, qHTS assay (AID 1346982); also: nearly all actives have a fitted effect of over 35% in size
Outline: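 Luciferase signal from ONE-Glo (30 min, room temperature) measured activation of hPXR-driven CYP3A4 reporter expression in PXR-Luc HepG2 cells treated with compounds for 24 hr at 37 C.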

[3] = molecular target: Cytochrome P450 2C19 (Homo sapiens) (UniProt P33261); test: Cytochrome P450 Family 2 Subfamily C Member 19 (CYP2C19) small molecule antagonists: luciferase reporter qHTS assay (AID 1671197); also: nearly all actives have a fitted effect of over 65% in size
Outline: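 Inhibition of CYP2C19 was scored from loss of luminescence in a P450-Glo proluciferin substrate assay, NADPH-started and run 1 h at 37C, with ketoconazole as positive control.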

[4] = molecular target: Cytochrome P450 1A2 (Homo sapiens) (UniProt P05177); test: Cytochrome P450 Family 1 Subfamily A Member 2 (CYP1A2) small molecule antagonists: luciferase reporter qHTS assay (AID 1671199); also: nearly all actives have a fitted effect of over 50% in size
Outline: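 P450-Glo CYP1A2, 1536-well qHTS: enzyme/proluciferin substrate + cpd (DMSO), 10 min RT; NADPH regen, 1 h RT; detection reagent, 20 min; luminescence, RLU.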

[5] = molecular target: Nuclear receptor subfamily 1 group I member 2 (Rattus norvegicus) (UniProt Q9R1A7); test: Rat pregnane X receptor (rPXR) activation by small molecules, qHTS assay (AID 1346983); details: rPXR luciferase reporter cells, One-Glo luminescence, 24 h; max activation: active compounds read high; also: nearly all actives have a fitted effect of over 20% in size
Outline: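 Luminescent readout (One-Glo luciferase, 30 min room temperature) followed 24 hr compound treatment at 37 C of rPXR cells plated 2,000 per well and preincubated 5hr; qHTS format with compounds delivered in DMSO.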

[6] = molecular target: Nuclear receptor subfamily 1 group I member 2 (Homo sapiens) (UniProt O75469); test: Human pregnane X receptor (PXR) activation by small molecules, qHTS assay (AID 1346985); also: nearly all actives have a fitted effect of over 40% in size
Outline: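 DPX-2 cells (HepG2 co-transfected with a PXR response element and a CYP3A4-promoter luciferase construct) were seeded at 2,000 per well, rested 5 hr at 37C, then exposed to DMSO-dissolved compounds for 24 hr. Activation was read as luciferase luminescence.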

[7] = molecular target: Nuclear receptor subfamily 1 group I member 2 (Homo sapiens) (UniProt O75469); test: CYP3A4 induction through human pregnane X receptor (PXR) by small molecules, qHTS assay (AID 1346984); also: nearly all actives have a fitted effect of over 40% in size
Outline: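 Luminescence readout: luciferase signal after One-Glo (30 min, room temperature), following 3 h at 37C with 3uM final Luciferin-IPA P450 substrate. Cells were DPX-2 (HepG2, PXR/CYP3A4-luc co-transfected) dosed for 24 h.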

[8] = molecular target: Cytochrome P450 2C9 (Homo sapiens) (UniProt P11712); test: Cytochrome P450 Family 2 Subfamily C Member 9 (CYP2C9) small molecule antagonists: luciferase reporter qHTS assay (AID 1671198); also: nearly all actives have a fitted effect of over 50% in size
Outline: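 Enzyme-substrate mix preincubated with compound 10 min at room temperature; reaction started with NADPH regeneration solution, 1 h 37C. Luminescent luciferin product read after 20 min detection reagent.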

[9] = molecular target: Cytochrome P450 2D6 (Homo sapiens) (UniProt P10635); test: Cytochrome P450 Family 2 Subfamily D Member 6 (CYP2D6) small molecule antagonists: luciferase reporter qHTS assay (AID 1671196); also: nearly all actives have a fitted effect of over 50% in size
Outline: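 Read-out is luminescence from luciferin formed by CYP2D6 turnover of a proluciferin substrate, recorded as relative luminescence units. Reactions ran 1 h at room temperature after NADPH regeneration solution was added.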

[10] = molecular target: Cytochrome P450 3A4 (Homo sapiens) (UniProt P08684); test: Cytochrome P450 Family 3 Subfamily A Member 4 (CYP3A4) small molecule antagonists: luciferase reporter qHTS assay (AID 1671201); also: nearly all actives have a fitted effect of over 50% in size
Outline: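 Setup: enzyme-substrate mix, compound pin transfer, 10 min RT. Reaction: NADPH regeneration solution, 1 h RT. Readout: detection reagent stops turnover, luminescence measured after 20 min, expressed in relative luminescence units.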

[11] = molecular target: Voltage-gated inwardly rectifying potassium channel KCNH2 (Homo sapiens) (UniProt Q12809); test: Human Ether-a-go-go-Related Gene (hERG) channel small molecule antagonists: fluorescence cell-based qHTS assay (AID 1671200); also: nearly all actives have a fitted effect of over 50% in size
Outline: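 Measured: Tl+ flux via fluorescence (480/540 nm) in hERG-expressing U2OS cells after 1 h dye loading at room temperature.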
Potency is read from the fitted curve at half-maximal effect; tags tell the direction and shape of the fitted curve.

Chain of UniProt P10635 (P10635 whole entry, looked up): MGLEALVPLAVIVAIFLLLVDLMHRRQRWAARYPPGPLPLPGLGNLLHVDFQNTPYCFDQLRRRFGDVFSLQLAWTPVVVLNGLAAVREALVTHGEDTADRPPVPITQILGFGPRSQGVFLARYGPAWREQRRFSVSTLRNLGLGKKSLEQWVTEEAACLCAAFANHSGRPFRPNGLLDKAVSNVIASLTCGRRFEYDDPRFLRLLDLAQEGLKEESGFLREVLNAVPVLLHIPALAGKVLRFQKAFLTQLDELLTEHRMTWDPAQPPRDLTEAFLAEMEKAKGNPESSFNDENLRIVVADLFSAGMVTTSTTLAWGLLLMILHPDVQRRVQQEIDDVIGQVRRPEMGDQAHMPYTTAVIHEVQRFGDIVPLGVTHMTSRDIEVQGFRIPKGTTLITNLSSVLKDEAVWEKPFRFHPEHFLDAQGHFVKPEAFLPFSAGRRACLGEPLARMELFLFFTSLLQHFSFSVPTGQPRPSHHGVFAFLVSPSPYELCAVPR
Chain of UniProt P33261 (P33261 whole entry, looked up): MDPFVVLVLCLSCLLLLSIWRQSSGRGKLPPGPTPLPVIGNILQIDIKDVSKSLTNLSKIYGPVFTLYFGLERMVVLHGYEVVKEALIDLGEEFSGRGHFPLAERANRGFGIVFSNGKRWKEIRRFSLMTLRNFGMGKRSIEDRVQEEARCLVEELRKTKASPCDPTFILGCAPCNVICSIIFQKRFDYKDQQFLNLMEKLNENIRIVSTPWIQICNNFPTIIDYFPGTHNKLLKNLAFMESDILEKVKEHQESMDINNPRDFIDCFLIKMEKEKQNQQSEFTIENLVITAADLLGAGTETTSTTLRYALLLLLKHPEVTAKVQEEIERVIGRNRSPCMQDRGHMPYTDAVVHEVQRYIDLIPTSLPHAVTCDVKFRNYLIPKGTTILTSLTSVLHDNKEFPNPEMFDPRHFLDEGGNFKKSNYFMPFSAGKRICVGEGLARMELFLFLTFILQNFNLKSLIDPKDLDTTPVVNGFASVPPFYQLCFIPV
Chain of UniProt P11712 (P11712 whole entry, looked up): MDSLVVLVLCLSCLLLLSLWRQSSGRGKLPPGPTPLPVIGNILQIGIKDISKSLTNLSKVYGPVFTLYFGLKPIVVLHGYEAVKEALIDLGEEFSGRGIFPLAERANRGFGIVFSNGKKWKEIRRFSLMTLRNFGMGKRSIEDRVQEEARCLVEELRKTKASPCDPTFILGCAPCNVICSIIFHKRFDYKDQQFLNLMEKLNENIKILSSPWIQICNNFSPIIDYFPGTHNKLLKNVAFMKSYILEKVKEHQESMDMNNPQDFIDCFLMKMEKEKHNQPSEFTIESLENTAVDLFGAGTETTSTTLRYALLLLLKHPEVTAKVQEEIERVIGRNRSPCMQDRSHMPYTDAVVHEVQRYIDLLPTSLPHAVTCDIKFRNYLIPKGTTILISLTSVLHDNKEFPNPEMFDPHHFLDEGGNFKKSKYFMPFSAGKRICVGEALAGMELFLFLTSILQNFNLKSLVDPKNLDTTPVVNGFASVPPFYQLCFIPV
Chain of UniProt P08684 (P08684 whole entry, looked up): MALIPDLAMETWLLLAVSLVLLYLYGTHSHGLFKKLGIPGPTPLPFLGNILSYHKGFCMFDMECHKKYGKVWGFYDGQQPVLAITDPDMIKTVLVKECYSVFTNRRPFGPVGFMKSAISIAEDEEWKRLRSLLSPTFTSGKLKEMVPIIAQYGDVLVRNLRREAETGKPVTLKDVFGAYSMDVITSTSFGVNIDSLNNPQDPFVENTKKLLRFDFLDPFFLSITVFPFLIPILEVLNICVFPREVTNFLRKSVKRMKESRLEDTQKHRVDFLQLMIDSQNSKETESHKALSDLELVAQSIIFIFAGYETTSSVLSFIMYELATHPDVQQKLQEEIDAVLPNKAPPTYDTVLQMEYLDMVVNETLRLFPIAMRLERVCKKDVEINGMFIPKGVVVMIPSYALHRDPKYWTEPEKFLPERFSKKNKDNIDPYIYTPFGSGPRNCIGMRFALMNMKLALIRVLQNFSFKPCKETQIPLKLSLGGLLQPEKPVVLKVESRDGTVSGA
Chain of UniProt P05177 (P05177 whole entry, looked up): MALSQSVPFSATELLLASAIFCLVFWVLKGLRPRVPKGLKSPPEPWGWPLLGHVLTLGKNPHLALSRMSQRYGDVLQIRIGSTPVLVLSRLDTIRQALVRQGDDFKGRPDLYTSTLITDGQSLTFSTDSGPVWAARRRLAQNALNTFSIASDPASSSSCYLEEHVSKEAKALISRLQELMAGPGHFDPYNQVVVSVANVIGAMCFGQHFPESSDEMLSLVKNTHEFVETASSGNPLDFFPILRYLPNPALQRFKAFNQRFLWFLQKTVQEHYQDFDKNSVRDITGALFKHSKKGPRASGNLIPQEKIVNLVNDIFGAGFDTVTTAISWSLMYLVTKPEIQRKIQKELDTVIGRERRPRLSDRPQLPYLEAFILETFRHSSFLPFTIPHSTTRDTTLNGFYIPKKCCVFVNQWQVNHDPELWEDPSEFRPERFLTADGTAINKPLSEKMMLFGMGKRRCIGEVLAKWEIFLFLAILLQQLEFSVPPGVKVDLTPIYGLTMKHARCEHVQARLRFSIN
Chain of UniProt Q9R1A7 (Q9R1A7 whole entry, looked up): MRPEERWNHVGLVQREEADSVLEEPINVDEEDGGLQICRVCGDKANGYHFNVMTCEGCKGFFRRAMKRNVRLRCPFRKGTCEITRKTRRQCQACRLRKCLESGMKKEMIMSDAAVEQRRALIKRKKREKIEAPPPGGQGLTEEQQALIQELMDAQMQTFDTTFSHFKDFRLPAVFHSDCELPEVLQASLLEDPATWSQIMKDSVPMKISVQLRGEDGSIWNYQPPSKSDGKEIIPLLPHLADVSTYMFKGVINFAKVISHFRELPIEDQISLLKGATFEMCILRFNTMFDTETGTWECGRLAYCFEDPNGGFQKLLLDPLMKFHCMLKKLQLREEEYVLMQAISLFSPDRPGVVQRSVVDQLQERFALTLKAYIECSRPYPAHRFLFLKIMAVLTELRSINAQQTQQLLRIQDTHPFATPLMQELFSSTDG
Chain of UniProt Q12809 (Q12809 whole entry, looked up): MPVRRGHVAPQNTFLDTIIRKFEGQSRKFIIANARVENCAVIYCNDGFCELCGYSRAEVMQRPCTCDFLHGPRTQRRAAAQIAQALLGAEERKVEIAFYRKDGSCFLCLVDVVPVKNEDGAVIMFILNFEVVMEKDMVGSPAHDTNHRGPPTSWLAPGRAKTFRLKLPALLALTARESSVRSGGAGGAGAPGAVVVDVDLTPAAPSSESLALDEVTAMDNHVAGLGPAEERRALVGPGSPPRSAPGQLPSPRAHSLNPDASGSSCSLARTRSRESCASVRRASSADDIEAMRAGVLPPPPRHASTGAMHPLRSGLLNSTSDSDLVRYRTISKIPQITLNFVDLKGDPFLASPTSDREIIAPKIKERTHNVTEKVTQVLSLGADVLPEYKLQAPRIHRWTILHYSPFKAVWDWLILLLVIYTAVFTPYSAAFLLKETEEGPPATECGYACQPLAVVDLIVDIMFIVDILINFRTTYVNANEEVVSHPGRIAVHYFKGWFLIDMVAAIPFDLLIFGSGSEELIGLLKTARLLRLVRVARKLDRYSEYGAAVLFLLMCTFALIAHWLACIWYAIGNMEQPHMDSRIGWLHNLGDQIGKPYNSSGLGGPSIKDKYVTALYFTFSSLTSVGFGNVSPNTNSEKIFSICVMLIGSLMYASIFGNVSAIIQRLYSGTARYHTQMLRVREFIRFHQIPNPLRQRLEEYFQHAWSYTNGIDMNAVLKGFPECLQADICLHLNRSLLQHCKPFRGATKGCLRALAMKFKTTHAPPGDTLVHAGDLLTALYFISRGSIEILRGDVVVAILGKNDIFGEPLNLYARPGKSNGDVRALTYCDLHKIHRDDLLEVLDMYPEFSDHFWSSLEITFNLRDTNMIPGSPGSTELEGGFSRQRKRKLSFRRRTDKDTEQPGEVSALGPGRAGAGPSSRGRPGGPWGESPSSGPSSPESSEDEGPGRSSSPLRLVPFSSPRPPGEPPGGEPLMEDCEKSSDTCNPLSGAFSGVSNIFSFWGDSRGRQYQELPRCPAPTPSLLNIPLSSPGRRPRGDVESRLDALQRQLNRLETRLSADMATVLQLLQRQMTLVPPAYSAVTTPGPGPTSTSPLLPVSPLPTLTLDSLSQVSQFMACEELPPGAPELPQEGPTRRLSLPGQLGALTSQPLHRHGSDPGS

## O=c1[nH]c(=O)c2cn[nH]c2[nH]1
[1]
  Potency: inconclusive: 68.6 µM [rising, single point]
[2]
  Potency: inconclusive: 68.6 µM [activator, single point]
[3]
  Potency: inactive

## CCC(CO)CO
[1]
  Potency: inactive
[2]
  Potency: inactive
[4]
  Potency: inconclusive: 20 µM [inhibitor, partial curve]

## Cc1ncc([N+](=O)[O-])n1CCO
[1]
  Potency: inconclusive: 77 µM [cytotoxic, partial curve, poor fit]
[2]
  Potency: inconclusive: 70.7 µM [activator, single point]

## O=S1(=O)c2cccc3cccc(c23)N1CCCN1CCN(c2ccc(F)cc2)CC1
[1]
  Potency: inconclusive: 33.5 µM [cytotoxic]
[5]
  Potency: inconclusive: 20 µM [activator, partial curve]
[6]
  Potency: active: 15.8 µM

## NC(N)=N/N=C/c1c(Cl)cccc1Cl
[1]
  Potency: active: 29.8 µM
[3]
  Potency: inactive

## COC(=O)c1ccccc1C(=O)c1ccc(OCCN2CCCCC2)cc1
[1]
  Potency: inconclusive: 33.5 µM [cytotoxic, partial curve, poor fit]
[2]
  Potency: inconclusive: 33.5 µM [activator, single point]
[7]
  Potency: inconclusive: 44.7 µM [activator, partial curve, poor fit]
[8]
  Potency: inactive

## CN1CCC(=C2c3ccccc3CC(=O)c3sccc32)CC1
[1]
  Potency: inconclusive: 29.8 µM [cytotoxic, partial curve]
[9]
  Potency: active: 2.45 µM

## CCN(Cc1ccccc1)c1ccccc1
[1]
  Potency: inactive
[2]
  Potency: inconclusive: 60.4 µM [activator, single point]
[9]
  Potency: inconclusive: 78.7 µM [inhibitor, partial curve, poor fit]

## Cc1c(N)cccc1[N+](=O)[O-]
[1]
  Potency: inactive
[9]
  Potency: inactive
[8]
  Potency: inactive
[4]
  Potency: active: 32.2 µM
[10]
  Potency: inconclusive: 72.1 µM [inhibitor]

## Cc1cccc(C)c1NC(=O)CN1CCCCCC1
[1]
  Potency: inactive
[7]
  Potency: active: 14.1 µM
[3]
  Potency: inconclusive: 38.9 µM [inhibitor]

## O=C=NC1CCC(CC2CCC(N=C=O)CC2)CC1 (configuration not stated)
[1]
  Potency: inconclusive: 48.6 µM [cytotoxic, partial curve]
[2]
  Potency: inconclusive: 54.5 µM [activator, partial curve, poor fit]
[3]
  Potency: active: 79.6 µM
[8]
  Potency: inconclusive: 39.9 µM [inhibitor, partial curve, poor fit]

## CN(C)CCCN
[1]
  Potency: inactive
[3]
  Potency: inactive
[8]
  Potency: inactive

## COCCCOc1ccnc(CS(=O)c2nc3ccccc3[nH]2)c1C (configuration not stated)
[1]
  Potency: inconclusive: 48.4 µM [cytotoxic, partial curve]
[5]
  Potency: active: 14.1 µM

## NCc1ccco1
[1]
  Potency: inactive
[9]
  Potency: inconclusive: 89.4 µM [inhibitor, partial curve, poor fit]
[10]
  Potency: inactive

## CCOCCO
[1]
  Potency: inactive
[3]
  Potency: inconclusive: 91.9 µM [inhibitor, single point]
[8]
  Potency: inactive

## Cc1cccc(NC(=S)N(C)C)c1
[1]
  Potency: inconclusive: 68.6 µM [cytotoxic, single point]
[2]
  Potency: inconclusive: 68.6 µM [activator, single point]
[8]
  Potency: inactive
[10]
  Potency: inactive

## Cc1ccc2ccccc2c1[N+](=O)[O-]
[1]
  Potency: inactive
[2]
  Potency: inconclusive: 27.3 µM [activator, partial curve]
[4]
  Potency: active: 2.52 µM
[10]
  Potency: inconclusive: 89.3 µM [inhibitor, single point]

## CC(C)(C)C(=O)CC(=O)C(C)(C)C
[1]
  Potency: inactive
[9]
  Potency: inactive

## NCCCN(CCO)CCO
[1]
  Potency: inactive
[9]
  Potency: inconclusive: 39.9 µM [inhibitor, partial curve]
[4]
  Potency: inconclusive: 79.6 µM [inhibitor, partial curve]

## Clc1cc(Cl)c2c(c1)N=C1CCCCCN1C2
[1]
  Potency: inconclusive: 29.8 µM [cytotoxic, partial curve]
[9]
  Potency: active: 2.75 µM
[3]
  Potency: inconclusive: 43.6 µM [inhibitor, single point]

## CNCC[C@@H](Oc1ccccc1C)c1ccccc1
[1]
  Potency: inconclusive: 26.6 µM [cytotoxic, partial curve]
[3]
  Potency: inconclusive: 9.77 µM [inhibitor]
[8]
  Potency: inconclusive: 43.6 µM [inhibitor, partial curve, poor fit]
[4]
  Potency: inconclusive: 32.3 µM [inhibitor, partial curve, poor fit]

## CCN(CC)CCNC(C(=O)OCCC(C)C)c1ccccc1 (configuration not stated)
[1]
  Potency: inconclusive: 15 µM [cytotoxic, partial curve, poor fit]
[2]
  Potency: inconclusive: 23.7 µM [activator, partial curve, poor fit]
[7]
  Potency: inconclusive: 14.1 µM [activator, partial curve, poor fit]
[6]
  Potency: inconclusive: 2.51 µM [activator, full curve, poor fit]
[9]
  Potency: active: 1.74 µM
[11]
  Potency: active: 9.52 µM
[10]
  Potency: inconclusive: 3.47 µM [inhibitor, full curve]
